Results as given in paper PMC12040169 (PLOS Biology, 2025).
This is one part of the list.

What follows are compounds tested on T1, C. trachomatis L2/434/Bu expressing GFP (CTL2-GFP). Settings: total inclusion area; 28.5 h, 10 µM; inhibitor.
T1 construct: L2/434/Bu GFP intracellular growth in HeLa cells
Parameters: species or system HeLa; C. trachomatis total inclusion area by high-content imaging, normalised to DMSO
Method in brief: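 After bulk GFP and resorufin fluorescence reads, cells were fixed, stained with Hoechst and imaged by high-content microscopy. Inclusion area and number (GFP) stood in for chlamydial growth, nuclei count (Hoechst) for host cell viability. MICs were derived as for the bulk readout.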

| SMILES | % of control remaining |
| --- | --- |
| CCOCCn1c(N2CCCC(C)C2)nc2c1c(=O)[nH]c(=O)n2C (centres unmarked) [CBK304304] | 57.9747 |
| COc1ccc(-c2cnc3[nH]c(=O)n(CCN4CCOCC4)c3n2)cc1 [CBK064782] | 100.967 |
| CC1CCc2n[nH]c(C(=O)N(C)CCc3ccncc3)c2C1 (centres unmarked) [CBK283195] | 98.1758 |
| CCOc1ccc(OC(=O)c2cccc(C)c2)cc1 [CBK083575] | 90.2239 |
| CC(=O)Nc1ccc(-c2ccc(COC3CCN(C(=O)Cc4ccc(C#N)cc4)CC3)cc2)cc1 [CBK149225] | 75.3679 |
| CCN(CC)CCCNC(=O)N1CCN(c2ccc(F)cc2)CC1 [CBK156419] | 111.731 |
| CC1CCc2c(sc(NC(=O)c3ccno3)c2C(N)=O)C1 (centres unmarked) [CBK287752] | 63.4354 |
| CC(C)(CN)c1ccccc1 [CBK012106C] | 66.5669 |
| COc1ccccc1/C=N/NC(=O)COc1c(Br)cc(Br)cc1Br [CBK261966] | 96.7716 |
| Cc1ccc(N(CC(O)CN2C(=O)NC(C)(C)C2=O)S(=O)(=O)c2ccccc2)cc1 (centres unmarked) [CBK263580] | 78.9776 |
| CNC(=O)CN1CC[C@H]2NC(=O)c3ccccc3OCC/C=C/C[C@H]2C1 [CBK292049] | 113.251 |
| Cc1cc2ncc3c(n2n1)CC1CCC3N1C(=O)c1ccco1 (centres unmarked) [CBK284379] | 100.584 |
| COc1cccc(/C=N/NC(=O)CCN2CCN(C)CC2)c1O [CBK261499] | 94.7994 |
| CCOC(=O)c1ccc(N2CCN(C(C)=O)CC2)c(NC(=O)c2cccc(F)c2)c1 [CBK270263] | 93.9853 |
| COc1cc(CNC(=O)N(CCC#N)C2CCCCC2)cc(OC)c1OC [CBK156359] | 95.1992 |
| O=C(Nc1ccc(Cl)cc1Cl)NC(Cc1ccc(O)cc1)C(=O)O (centres unmarked) [CBK267386] | 107.207 |
| CC(C)N/C(=N/S(=O)(=O)c1ccccc1)c1ccccc1 [CBK262346] | 109.011 |
| COc1ccc(/C(C#N)=C/c2ccc(-c3ccc(C(=O)O)cc3)o2)cc1OC [CBK268953] | 99.9459 |
| Cc1n[nH]c(C)c1CCC(=O)N/N=C/c1ccc(O)cc1 [CBK262927] | 120.414 |
| O=C(NC(c1ccccc1)c1cccnc1)C1CCN(C(=O)NCCc2cccs2)CC1 (centres unmarked) [CBK060313] | 83.442 |
| COC(=O)c1cccc2c1CCCN2Cc1nnc(C2CCC2)o1 [CBK304072] | 61.9045 |
| Cc1ccc(N2CC(C(=O)Nc3ccc(S(=O)(=O)NCC4CCCO4)cc3)CC2=O)cc1 (centres unmarked) [CBK267532] | 90.1874 |
| COc1ccccc1CCC(=O)N1CCCc2c(cnn2C)C1 [CBK284847] | 114.668 |
| O=C(CSc1ncn(-c2ccccc2)n1)Nc1ccc(F)c(Cl)c1 [CBK267313] | 105.719 |
| O=C1c2ccccc2CN1c1ccc(OC(F)(F)F)cc1 [CBK113237] | 48.138 |
| O=C(CC(CN1CCN(c2ccccn2)CC1)C(=O)O)NCc1ccccc1 (centres unmarked) [CBK286649] | 84.4232 |
| Cn1cccc1CN1CCCC(n2c(=O)oc3ccccc32)C1 (centres unmarked) [CBK285111] | 120.999 |

| SMILES | % of control remaining |
| --- | --- |
| O=C(/C=C/c1ccsc1)Nc1ccc(F)cc1 [CBK057139] | 82.6076 |
| CNC(=O)c1ccc(-c2ccc(C(C)=O)s2)nc1NCC1CC1 [CBK106307] | 61.462 |
| COc1ccc([C@@]23CC[C@@H](NC(=O)Nc4ccc(C(C)(C)C)cc4)C[C@@H]2N(C)CC3)cc1OC [CBK036469T] | 68.3281 |
| NCCOc1ncccc1OCc1ccccc1 [CBK036305] | 42.0894 |
| CCOC(=O)c1c(NC(=O)c2cc3ccccc3o2)sc2c1CCCC2 [CBK262552] | 115.46 |
| O=C(O)CC(NCc1ccccc1)C(=O)Nc1ccc(Cl)cc1 (centres unmarked) [CBK267141] | 101.553 |
| O=C(CSCc1ccc(Cl)cc1Cl)Nc1nccs1 [CBK131921] | 97.5487 |
| Cc1cc(NC(=O)C(=O)NCCCN2CCOCC2)ccc1Br [CBK268046] | 115.195 |
| Cc1cc(O)c(-c2n[nH]c3c2C(c2ccccc2F)N(Cc2cccnc2)C3=O)cc1C (centres unmarked) [CBK268831] | 99.5023 |
| Clc1cccc(-c2cncc(N3CCN(c4ccncc4)CC3)n2)c1 [CBK066099] | 94.5889 |
| O=C(O)c1ccc(-c2n[nH]c(=O)c3ccccc23)cc1 [CBK287148] | 107.84 |
| COC(=O)c1ccc(S(=O)(=O)N2CCC(C)CC2)cc1 [CBK070414] | 78.2858 |
| COc1ccccc1CCNC(=O)c1ncoc1-c1cccs1 [CBK282394] | 74.0189 |
| COC(=O)Nc1ccc(S(=O)(=O)N2CCCC(C(=O)O)C2)cc1 (centres unmarked) [CBK265364] | 105.982 |
| Cc1cc(SCc2ccc(Cl)cc2)nc(=O)[nH]1 [CBK287719] | 97.2236 |
| O=C(CN1CCOCC1)NC(=O)Nc1ccccc1 [CBK269213] | 86.2414 |
| COc1ccccc1CN1CC[C@H]2NC(=O)CNC(=O)C3(C/C=C/C[C@H]2C1)CCN(C(C)=O)CC3 [CBK292107] | 95.8126 |
| Cc1nn(Cc2cccc3ccccc23)c(C)c1NC(=O)c1ccncc1 [CBK269990] | 77.8184 |
| COc1ccc(N2CCN(c3cc(C)nc4cc(-c5nccn5C)nn34)CC2)cc1 [CBK286187] | 146.644 |
| O=C1NC2(CCCCCC2)C(=O)N1Cc1coc(-c2cccs2)n1 [CBK305858] | 78.3845 |
| COC1CCCC(C(=O)NC(Cc2ccsc2)c2cccnc2)C1 (centres unmarked) [CBK284654] | 101.89 |
| COc1cc(C(=O)Nc2nc3c(s2)CC(C)CC3)cc(OC)c1OC (centres unmarked) [CBK287299] | 49.1573 |
| CCCNC(=O)N1CCCC(Cc2ccc(F)cc2F)(C(=O)OCC)C1 (centres unmarked) [CBK307031] | 66.5913 |
| Cc1ccc(S(=O)(=O)N2CCCCC2CO)cc1 (centres unmarked) [CBK051142] | 61.4623 |
| CCOc1ccc(CNc2ccc(S(N)(=O)=O)cc2)cc1 [CBK267962] | 100.955 |
| CN(C)C(=O)c1sc2ccccc2c1Cl [CBK067817] | 85.997 |
| Cc1nc2c(C(=O)NCCCN3CCCC3=O)cnn2c(C)c1Cc1cccc(F)c1 [CBK162104] | 56.3867 |

| SMILES | % of control remaining |
| --- | --- |
| N#CCCn1cc(C(=O)N2CCOCC2)c(-c2cccc(Cl)c2)n1 [CBK306208] | 44.6944 |
| CC(C)(C)c1ccc(C(=O)Nc2nsc(-c3ccc(Cl)cc3)n2)cc1 [CBK113176] | 100.521 |
| O=c1[nH]c2ncc(-c3cccc4cccnc34)nc2n1Cc1cccnc1 [CBK064305] | 100.478 |
| CCn1nccc1C(=O)NC1=C(C#N)CCC1 [CBK265836] | 105.91 |
| Cc1onc(-c2ccccc2Cl)c1C(=O)Nc1ccc(S(=O)(=O)NCC2CCCO2)cc1 (centres unmarked) [CBK267536] | 100.175 |
| COc1cc2[nH]c(=S)n(CCc3c[nH]cn3)c(=O)c2cc1OC [CBK268333] | 96.712 |
| Cc1cc(N2CCOCC2)ccc1NC(=O)CCOc1cccc(Cl)c1 [CBK305724] | 112.044 |
| COc1cccc(CNC(C)(C)CO)c1OCc1ccc(Cl)cc1 [CBK266552C] | 117.004 |
| O=C(c1cc(-c2cccs2)[nH]n1)N1CCCCCC1 [CBK288108] | 110.885 |
| CC(Nc1cc(N2CCN(S(=O)(=O)N(C)C)CC2)ccc1[N+](=O)[O-])C12CC3CC(CC(C3)C1)C2 (centres unmarked) [CBK265479] | 81.1209 |
| Cc1nnc2sc(-c3ccc(NC(=S)NC(=O)c4ccc(-c5ccccc5[N+](=O)[O-])o4)cc3)nn12 [CBK266803] | 112.219 |
| Cc1cc(O)nc(SCCOCCSc2ccc(Cl)cc2)n1 [CBK267372] | 122.169 |
| Cc1ccc(-c2ccnc3[nH]c(=O)[nH]c(=O)c23)cc1 [CBK287978] | 97.1245 |
| Cc1cc(C)c(C)c(C(=O)COC(=O)c2cc(O)nc3ccccc23)c1C [CBK264066] | 95.2003 |
| CC(=O)Cc1ccccc1OCC(=O)O [CBK261031] | 104.589 |
| Cc1cccc(C2(c3cccc(C)c3)CC2C(=O)NCc2cccnc2)c1 (centres unmarked) [CBK262382] | 99.4237 |
| CN1C(=O)c2ccccc2OCCCCC[C@H]2[C@@H]1CCCN2C(=O)CN1CCN(CCO)CC1 [CBK292144] | 117.056 |
| O=C(Nc1ccccc1[N+](=O)[O-])C1Cc2ccccc2CN1S(=O)(=O)c1ccc(F)cc1 (centres unmarked) [CBK266129] | 126.135 |
| CCOC(=O)c1ccc(N2C(=O)CC(N3CCCc4ccccc43)C2=O)cc1 (centres unmarked) [CBK268720] | 73.5054 |
| Cn1c(=O)n(C)c2cc(S(=O)(=O)NCCOc3ccc(C(=O)O)cc3)ccc21 [CBK299824] | 63.1598 |
| O=S(=O)(NCc1ccc(C(F)(F)F)cc1)c1cccs1 [CBK043744] | 89.8525 |
| CC(=O)N1CC[C@H]2NC(=O)CNC(=O)C3(CCCC[C@H]2C1)CCN(C(=O)/C=C/c1ccccc1)CC3 [CBK292092] | 89.3691 |
| COc1ccc(Nc2cc(-c3ccco3)ncn2)c(OC)c1 [CBK090761] | 62.5327 |
| CCCCN(/C=N/S(=O)(=O)c1ccccc1)CCCC [CBK026576] | 122.952 |
| COc1cc2cc(CN(Cc3cccnc3)C(=O)Nc3ccc(F)cc3)c(=O)[nH]c2cc1OC [CBK108193] | 107.925 |
| CC(C)N(CCOc1nccnc1/C=C/c1ccccc1)C(C)C [CBK106889] | 104.988 |
